Measured values reported in PubChem BioAssay AID624418 (National Center for Advancing Translational Sciences (NCATS), 2012).
Among all 410,000 compounds or so, about 530 (0.13%) were called active. Inconclusive means that the source gave no clear call. Such entries were picked first, then a sample of the others. The call rests on the fitted dose curve; in most records, active means well fitted inhibition curve with a large enough effect; inconclusive means small, poorly fitted or top-dose-only effect, or another doubt; inactive means no such curve, though single readings can be large or run the other way. Potencies beside an inconclusive call are fits to weak or partial responses and may not hold up.

Test: qHTS of GLP-1 Receptor Inverse Agonists: Cytotox Screen
Details: HEK293 cAMP-luciferase reporter cells, luminescence, 24 h; activity change, negative = inhibition: at 38.3 µM (top of the series) unless noted
In short: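 Step one: seed cells (200 cells/uL, DMEM with 10% Nu serum, 1% pen-strep). Step two: 12-hour incubation at 37 deg C. Step three: pin 23 nL compound, incubate 24 hr. Step four: add luciferase reagent, read luminescence 12 min later.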
On the % scale 0 is the no-effect control and ±100 the full control effect; potency means the concentration at half of the fitted maximal effect.

Q: With `CCc1c(C2(O)CCCCC2)[nH]c2ncccc12` as the compound, how does the Potency read?
A: inconclusive: 0.501 µM [inhibitor, full curve, poor fit]

Q: With `O=C(CSc1ccc(Cl)cc1)Nc1cccc(-c2nc3ccccc3[nH]2)c1` as the compound, how does the Potency read?
A: inconclusive: 11.2 µM [inhibitor, single point]

Q: With `Cc1ccc(/C=N/NC(=O)c2cccs2)s1` as the compound, how does the “activity change, negative = inhibition” value read?
A: inactive: -3.27%

Q: With `Cn1c(CCN2CCCCC2)nc2cc(NC(=O)COc3ccc([N+](=O)[O-])cc3)ccc21` as the compound, how does the Potency read?
A: inconclusive: 14.1 µM [inhibitor, single point]

Q: For `COc1cc(OC)cc(C(=O)Nc2ccc3nc(N4CCC(C)CC4)cc(C)c3c2)c1`, which “activity change, negative = inhibition” value is on record?
A: inactive: -17.3%

Q: With `Cc1sc(NC(=O)c2ccco2)c(C(c2ccc(F)cc2)N2CCN(C)CC2)c1C` (configuration not stated) as the compound, how does the Potency read?
A: inconclusive: 10 µM [inhibitor, single point]

Q: With `CC(=O)Nc1ccc(S(=O)(=O)/N=C2\C(=O)c3ccccc3C([O-])=C2n2cc[n+](-c3ccccn3)c2)cc1` as the compound, how does the Potency read?
A: inconclusive: 28.2 µM [inhibitor, single point]

Q: With `CSCC[C@@H](C(=O)NCCCCCCCCCCC(=O)N1CCN(C(=O)OC(C)(C)C)CC1)n1cc(CCO)nn1` as the compound, how does the Potency read?
A: inconclusive: 10 µM [inhibitor, partial curve, poor fit]

Q: For `CCN1CCN(C(=O)c2cc3sccc3n2CC(=O)c2ccccc2)CC1`, which Potency is on record?
A: inconclusive: 10 µM [inhibitor, single point]

Q: For `S=C(NCCN(C1CCCCC1)C1CCCC1)Nc1cccc(Cl)c1`, which Potency is on record?
A: inconclusive: 28.2 µM [inhibitor, single point]

Q: For `Cc1nc2ccc(NS(=O)(=O)c3ccc(Br)cc3)cc2s1`, which “activity change, negative = inhibition” value is on record?
A: inactive: 3.2%

Q: For `Cc1ccc(NC(=O)CSCC(=O)NNC(=O)c2nn(C)c(=O)c3ccccc23)cc1`, which Potency is on record?
A: inconclusive: 31.6 µM [inhibitor, single point]

Q: Which “activity change, negative = inhibition” value does the source give for `COc1ccc(Nc2ncc3c(n2)CCN(Cc2ccc(Br)s2)C3)c(OC)c1` here?
A: inactive: 86%

Q: For `CC(C)(C)NS(=O)(=O)c1ccc(NC(=S)NC(=O)C2CC2)cc1`, which Potency is on record?
A: inconclusive: 10 µM [inhibitor, partial curve]

Q: For `CCN(CCn1cccn1)C(=O)c1cc(COc2cc(C)ccc2C)on1`, which “activity change, negative = inhibition” value is on record?
A: inactive: -4.53%

Q: Which Potency does the source give for `Cc1onc(-c2c(F)cccc2Cl)c1C(=O)N=C(N)N1CCCC1` here?
A: inconclusive: 28.2 µM [inhibitor, single point]

Q: For `Cc1ccc(Cl)cc1N1CCN(Cc2nc3ccsc3c(=O)[nH]2)CC1`, which “activity change, negative = inhibition” value is on record?
A: inactive: 0.65%

Q: For `Cc1ccc2nc(Cl)c3cc(C(=O)N(CCN(C)C)Cc4ccco4)sc3c2c1`, which Potency is on record?
A: inconclusive: 3.98 µM [inhibitor, full curve, poor fit]

Q: For `CCOc1ccc(CCN2C(=O)C(=O)N([C@@H](Cc3ccccc3)CN3CCC[C@H]3CN3C(=O)C(=O)NC[C@@H]3Cc3ccccc3)C[C@@H]2CC(C)C)cc1`, which Potency is on record?
A: inconclusive: 28.2 µM [inhibitor, single point]

Q: With `Cc1ccc(N2CC(NC(=O)C3CCCCC3)CC2=O)cc1C` (configuration not stated) as the compound, how does the “activity change, negative = inhibition” value read?
A: inactive: 3.99%

Q: With `O=S(=O)(Nc1ccccc1)c1ccc(Oc2ncc(C(F)(F)F)cc2Cl)cc1` as the compound, how does the Potency read?
A: inconclusive: 28.2 µM [inhibitor, single point]

Q: For `CCNc1nc(-c2sc(NC(=O)C(C)(C)C)nc2C)c(-n2cc(-c3ccccc3)nn2)s1`, which Potency is on record?
A: inconclusive: 20 µM [inhibitor, single point]

Q: For `CCOC(=O)CCS(=O)(=O)c1nc(-c2ccccc2)cc(C(F)(F)F)n1`, which Potency is on record?
A: inconclusive: 6.31 µM [inhibitor, partial curve, poor fit]

Q: For `COC(=O)/C=C(\C)N=Nc1c(O)[nH]c2ccccc12`, which Potency is on record?
A: inconclusive: 28.2 µM [inhibitor, single point]

Q: Which Potency does the source give for `CC(=O)c1c(-c2ccc(Cl)cc2Cl)noc1C` here?
A: inconclusive: 2.51 µM [inhibitor, partial curve, poor fit]

Q: For `C/C=C/c1ccc(OCCCNC2CCCC2)c(OC)c1`, which Potency is on record?
A: inconclusive: 11.2 µM [inhibitor, partial curve, poor fit]

Q: Which “activity change, negative = inhibition” value does the source give for `O=C(Nc1cc(Cl)cc(Cl)c1)c1ccc(F)c(S(=O)(=O)NCc2ccccc2Cl)c1` here?
A: inactive: -16.6%

Q: For `CCOC(=O)Cc1csc(NC(=S)NC(=O)c2ccc(Cl)cc2)n1`, which Potency is on record?
A: inconclusive: 28.2 µM [inhibitor, single point]

Q: For `CC(=O)N1CCC2(CC1)CC(=O)c1cc(OCC(=O)N3CCCC3)ccc1O2`, which “activity change, negative = inhibition” value is on record?
A: inactive: 54.1%

Q: With `O=C(NNS(=O)(=O)c1ccc2ccccc2c1)c1cc(-c2ccccn2)nc2ccccc12` as the compound, how does the “activity change, negative = inhibition” value read?
A: inactive: -0.304%

Q: Which Potency does the source give for `Cc1ccc(-n2ncc(C(=O)Nc3c(Cl)cccc3Cl)c2C2CCNCC2)cc1` here?
A: inconclusive: 10 µM [inhibitor, single point]

Q: With `COc1ccc(N2CCN(C(=S)NC(=O)c3cccs3)CC2)c([N+](=O)[O-])c1` as the compound, how does the Potency read?
A: inconclusive: 11.2 µM [inhibitor, partial curve, poor fit]

Q: Which “activity change, negative = inhibition” value does the source give for `Cc1ccc(-c2n[nH]c(=S)n2/N=C\c2ccco2)cc1` here?
A: inactive: -12.7%

Q: Which Potency does the source give for `Cc1cccc(C(=O)Nc2ccccc2SCC2CSc3nc4ccccc4c(=O)n32)c1` (configuration not stated) here?
A: inconclusive: 10 µM [inhibitor, single point]

Q: Which Potency does the source give for `O=C(NCCc1ccccc1)Nc1cccc(Cl)c1` here?
A: inconclusive: 12.6 µM [inhibitor, single point]

Q: For `Cc1ccc2oc(Nc3nc(-c4ccccc4)cc(=O)[nH]3)nc2c1`, which “activity change, negative = inhibition” value is on record?
A: inactive: -34.7%

Q: For `O=C(NC1CCCCC1)C(c1ccccc1)N(Cc1ccco1)C(=O)c1csnn1` (configuration not stated), which “activity change, negative = inhibition” value is on record?
A: inactive: -9.54%

Q: For `COc1ccccc1C(CNC(=O)c1ccc(NS(=O)(=O)c2ccc(F)c(C)c2)cc1)N1CCCC1` (configuration not stated), which Potency is on record?
A: inconclusive: 28.2 µM [inhibitor, single point]

Q: With `CCOC(=O)c1ccc(N2Cc3ccccc3C2=NC(=O)c2cccc([N+](=O)[O-])c2)cc1` as the compound, how does the “activity change, negative = inhibition” value read?
A: inactive: -4.23%

Q: With `CC1Cc2cc(-c3csc(NC(=O)Cc4ccccc4)n3)ccc2N1S(C)(=O)=O` (configuration not stated) as the compound, how does the Potency read?
A: inconclusive: 0.501 µM [inhibitor, full curve, poor fit]

Q: For `Cc1cccc(NC(=S)N2CCC(c3nc4ccccc4s3)CC2)c1`, which Potency is on record?
A: inconclusive: 28.2 µM [inhibitor, single point]

Q: With `COc1ccccc1Nc1c2c(nc3ccc(NC(=O)c4cccc(F)c4)cc13)CCCC2` as the compound, how does the Potency read?
A: inconclusive: 3.55 µM [inhibitor, single point]

Q: With `CCOC(=O)c1c(C)sc2c1N(C(=O)CN(CC)CC)c1cc(Cl)ccc1S2` as the compound, how does the Potency read?
A: inconclusive: 20 µM [inhibitor, single point]

Q: For `O=C(Nc1ccc(Cl)c(Cl)c1)Nc1ccccc1C(=O)O`, which “activity change, negative = inhibition” value is on record?
A: inactive: -7.23%

Q: For `CN(C)C(=S)N=c1ssc(=S)n1Cc1cccnc1`, which Potency is on record?
A: inconclusive: 0.794 µM [inhibitor, full curve, poor fit]

Q: For `O=C(c1ccc(Br)o1)N1CCN(CCc2ccncc2)CC1`, which “activity change, negative = inhibition” value is on record?
A: inactive: 4.92%

Q: Which “activity change, negative = inhibition” value does the source give for `CCC(C)NC(=O)CSc1ccc(S(=O)(=O)N(C)C2CCCCC2)cn1` (configuration not stated) here?
A: inactive: -20.4%

Q: Which Potency does the source give for `C#CCOCCOCCOCCNc1nc(N2CCN(C(=O)CCCCCCCCCCNC(=O)[C@H](CCCCN)n3cc(CCCC(=O)O)nn3)CC2)nc(N2CCN(C(=O)CCCCCCCCCCNC(=O)[C@H](CCCN=C(N)N)n3cc(C[C@@H](C)CC)nn3)CC2)n1` here?
A: inconclusive: 28.2 µM [inhibitor, single point]

Q: For `COc1cc(OC)c2c(-c3cccc(-c4ccc(CO)cc4)c3)cc(=O)oc2c1`, which Potency is on record?
A: inconclusive: 0.501 µM [inhibitor, full curve, poor fit]

Q: For `O=C(c1cc2ccccn2n1)N1CCN(Cc2ccccc2)CC1`, which “activity change, negative = inhibition” value is on record?
A: inactive: -4.1%

Q: For `N#C/C(=N\Nc1ccccc1)C(=N)N1CCCCCC1`, which Potency is on record?
A: inconclusive: 11.2 µM [inhibitor, single point]

Q: For `Cc1ccc(N2CCN(C(=S)Nc3ccccc3)CC2)cc1`, which “activity change, negative = inhibition” value is on record?
A: inactive: -6.86%

Q: Which “activity change, negative = inhibition” value does the source give for `Cc1nn(-c2ccccc2)c(Cl)c1C1C(C#N)=C(N)Oc2n[nH]c(C)c21` (configuration not stated) here?
A: inactive: -19.2%

Q: For `O=C(CN1C2CCCC1CC(NC(=O)C1CCCCC1)C2)Nc1ccccc1C(F)(F)F` (configuration not stated), which “activity change, negative = inhibition” value is on record?
A: inactive: 7.88%

Q: For `CC1CCCN(CCCNC(=O)c2ccc3c(c2)N(Cc2ccc(F)cc2)C(=O)c2ccccc2S3=O)C1` (configuration not stated), which Potency is on record?
A: inconclusive: 28.2 µM [inhibitor, single point]

Q: Which “activity change, negative = inhibition” value does the source give for `O=C(CN1C(=O)c2ccccc2S1(=O)=O)NCc1ccccc1Cl` here?
A: inactive: 0.761%

Q: For `CCCN1CC(=O)N2C(c3cccc(OC)c3OC)c3[nH]c4ccccc4c3C[C@H]2C1=O` (some centres not stated), which “activity change, negative = inhibition” value is on record?
A: inactive: -9.52%

Q: With `O=C(c1ccc(=O)oc1)N1CCOCC1` as the compound, how does the “activity change, negative = inhibition” value read?
A: inactive: -6.15%

Q: With `CC[C@@]1(O)C(=O)OCc2c1cc1n(c2=O)Cc2cc3c(N)cccc3nc2-1` as the compound, how does the Potency read?
A: inconclusive: 1 µM [inhibitor, full curve, poor fit]

Q: Which Potency does the source give for `CN(CCNC(=O)c1c[nH]c2c1ccc1ccccc12)CCNC(=O)c1c[nH]c2c1ccc1ccccc12` here?
A: inconclusive: 28.2 µM [inhibitor, single point]

Q: For `COc1cc(C(=O)NC(=S)Nc2ccccc2N2CCOCC2)cc(OC)c1OC`, which Potency is on record?
A: inconclusive: 28.2 µM [inhibitor, single point]

Q: Which Potency does the source give for `C(=N/Nc1nc(-c2ccccc2)cc(-c2ccccc2)n1)/c1cccnc1` here?
A: inconclusive: 12.6 µM [inhibitor, partial curve, poor fit]

Q: Which Potency does the source give for `Cn1cnc2c(=O)oc3ccc(S(=O)(=O)N4CCN(c5cccc(Cl)c5)CC4)cc3c21` here?
A: inconclusive: 15.8 µM [inhibitor, single point]

Q: For `O=C(NC1CCS(=O)(=O)C1)c1c(NC(=O)C2COc3ccccc3O2)sc2c1CCCC2` (configuration not stated), which Potency is on record?
A: inconclusive: 12.6 µM [inhibitor, single point]

Q: With `Cc1cccc(-n2nc([N+](=O)[O-])c(=NC3CCN(Cc4ccccc4)CC3)n2O)c1` as the compound, how does the “activity change, negative = inhibition” value read?
A: inactive: -30.2%

Q: Which Potency does the source give for `O=[N+]([O-])c1ccccc1/C=C/CN1CCCCC1` here?
A: inconclusive: 12.6 µM [inhibitor, single point]

Q: With `COc1ccc(C2Nc3ccccc3C(=O)N2c2ccccc2)cc1CN1CCOCC1` (configuration not stated) as the compound, how does the “activity change, negative = inhibition” value read?
A: inactive: 6.18%
